Assay results as given in patent US7423058B2, “Inhibitors of hepatitis C virus NS3 protease” (Schering Corporation, priority 2004, dated 2008).

Target: Recombinant heterodimeric HCV NS3/NS4A protease (strain 1a) (Hepatitis C virus genotype 1a, UniProt P27958)
Experiment: Spectrophotometric assay for HCV protease inhibitory activity (chromogenic ester substrates)
Format: biochemical
Conditions: Table 3, Esters; read-out: Ki* Range

Row | Structure (SMILES) | Ki [nM]
1 | CCCC(NC(=O)[C@@H]1[C@@H]2[C@H](CN1C(=O)[C@@H](NC(=O)N[C@H](C(=O)OC(C)(C)C)C(C)(C)C)C(C)(C)C)C2(C)C)C(=O)C(N)=O (stereo partly shown) [compound 4398] | < 75
2 | C[C@H](OC(=O)[C@@H](NC(=O)N[C@H](C(=O)N1C[C@H]2[C@@H]([C@H]1C(=O)NC(CC1CCC1)C(=O)C(N)=O)C2(C)C)C1CCCCC1)C(C)(C)C)c1ccccc1 (stereo partly shown) [compound 4399] | < 75
3 | C=CCNC(=O)C(=O)C(CCC)NC(=O)[C@@H]1[C@@H]2[C@H](CN1C(=O)[C@@H](NC(=O)N[C@H](C(=O)OCc1ccccc1)C1CCC1)C(C)(C)C)C2(C)C (stereo partly shown) [compound 4400] | < 75
4 | CC1(C)[C@@H]2[C@@H](C(=O)NC(CC3CC3)C(=O)C(N)=O)N(C(=O)[C@@H](NC(=O)N[C@H](C(=O)OCc3ccccc3)C3CCCCC3)C3CCCCC3)C[C@@H]21 (stereo partly shown) [compound 4401] | < 75
5 | C=CCNC(=O)C(=O)C(CCCC)NC(=O)[C@@H]1[C@@H]2[C@H](CN1C(=O)[C@@H](NC(=O)N[C@H](C(=O)OC(C)C)C(C)(C)C)C1CCCCC1)C2(C)C (stereo partly shown) [compound 4402] | < 75
6 | CC(C)[C@H](NC(=O)N[C@H](C(=O)N1C[C@H]2[C@@H]([C@H]1C(=O)NC(CCC(F)(F)F)C(=O)C(N)=O)C2(C)C)C(C)(C)C)C(=O)OCc1ccco1 (stereo partly shown) [compound 4403] | < 75
7 | CC(C)(C)OC(=O)[C@@H](NC(=O)N[C@H](C(=O)N1C[C@H]2[C@@H]([C@H]1C(=O)NC(CCC(F)(F)F)C(=O)C(N)=O)C2(C)C)C(C)(C)C)C(C)(C)C (stereo partly shown) [compound 4404] | < 75
8 | CC(C)(C)[C@H](NC(=O)NC1(C(=O)OCc2ccco2)CCCCC1)C(=O)N1C[C@H]2[C@@H]([C@H]1C(=O)NC(CC1CC1)C(=O)C(N)=O)C2(C)C (stereo partly shown) [compound 4405] | < 75
9 | C=CCNC(=O)C(=O)C(CCCC)NC(=O)[C@@H]1[C@@H]2[C@H](CN1C(=O)[C@@H](NC(=O)N[C@H](C(=O)OC(C1CC1)C1CC1)C(C)C)C(C)(C)C)C2(C)C (stereo partly shown) [compound 4406] | < 75
10 | C=CCNC(=O)C(=O)C(CCC)NC(=O)[C@@H]1[C@@H]2[C@H](CN1C(=O)[C@@H](NC(=O)N[C@H](C(=O)OC(C)(C)C1CC1)C(C)C)C(C)(C)C)C2(C)C (stereo partly shown) [compound 4407] | < 75
11 | CC(C)(C)[C@H](NC(=O)N[C@H](C(=O)N1C[C@H]2[C@@H]([C@H]1C(=O)NC(CC1CC1)C(=O)C(N)=O)C2(C)C)C(C)(C)C)C(=O)OC1CCOC1 (stereo partly shown) [compound 4408] | < 75
12 | COC(=O)C1(NC(=O)N[C@H](C(=O)N2C[C@H]3[C@@H]([C@H]2C(=O)NC(CC2CC2)C(=O)C(N)=O)C3(C)C)C(C)(C)C)CCCCC1 (stereo partly shown) [compound 4410] | < 75
13 | CC[C@H](C)[C@H](NC(=O)N[C@H](C(=O)N1C[C@H]2[C@@H]([C@H]1C(=O)NC(CC1CC1)C(=O)C(N)=O)C2(C)C)C(C)(C)C)C(=O)OCc1ccccc1 (stereo partly shown) [compound 4411] | < 75
14 | CC(C)[C@H](NC(=O)N[C@H](C(=O)OC(C)(C)C)C(C)(C)C)C(=O)N1C[C@H]2[C@@H]([C@H]1C(=O)NC(CC1CC1)C(=O)C(N)=O)C2(C)C (stereo partly shown) [compound 4412] | < 75
15 | CC(C)(C)OC(=O)C1(NC(=O)N[C@H](C(=O)N2C[C@H]3[C@@H]([C@H]2C(=O)NC(CC2CC2)C(=O)C(N)=O)C3(C)C)C2CCCCC2)CCCCC1 (stereo partly shown) [compound 4413] | < 75
16 | CC[C@H](C)[C@H](NC(=O)N[C@H](C(=O)N1C[C@H]2[C@@H]([C@H]1C(=O)NC(CC1CC1)C(=O)C(N)=O)C2(C)C)C(C)(C)C)C(=O)OC(C)(C)C (stereo partly shown) [compound 4414] | < 75
17 | CCCCC(NC(=O)[C@@H]1[C@@H]2[C@H](CN1C(=O)[C@@H](NC(=O)N[C@H](C(=O)OC(C)(C)C)C(C)(C)C)C1CCCCC1)C2(C)C)C(=O)C(=O)NC (stereo partly shown) [compound 4415] | < 75
18 | C=CCNC(=O)C(=O)C(CCCC)NC(=O)[C@@H]1[C@@H]2[C@H](CN1C(=O)[C@@H](NC(=O)N[C@H](C(=O)OC(C)(C)C)C(C)C)C(C)(C)C)C2(C)C (stereo partly shown) [compound 4416] | < 75
19 | C=CCNC(=O)C(=O)C(CCC)NC(=O)[C@@H]1[C@@H]2[C@H](CN1C(=O)[C@@H](NC(=O)N[C@H](C(=O)OCc1ccccc1)C1CCCC1)C(C)(C)C)C2(C)C (stereo partly shown) [compound 4417] | < 75
20 | CC(C)[C@H](NC(=O)N[C@H](C(=O)N1C[C@H]2[C@@H]([C@H]1C(=O)NC(CC1CC1)C(=O)C(N)=O)C2(C)C)C(C)(C)C)C(=O)OC1Cc2ccccc2C1 (stereo partly shown) [compound 4418] | < 75
21 | C=CCNC(=O)C(=O)C(CCC)NC(=O)[C@@H]1[C@@H]2[C@H](CN1C(=O)[C@@H](NC(=O)N[C@H](C(=O)OC(C)C1CC1)C(C)(C)C)C(C)(C)C)C2(C)C (stereo partly shown) [compound 4419] | < 75
22 | CC(C)(C)[C@@H](NC(=O)N[C@@H](C(=O)N1C[C@H]2[C@@H]([C@H]1C(=O)NC(CC1CC1)C(=O)C(N)=O)C2(C)C)C(C)(C)C)C(=O)OC1Cc2ccccc2C1 (stereo partly shown) [compound 4420] | < 75
23 | CC(C)(C)C[C@H](NC(=O)N[C@H](C(=O)N1C[C@H]2[C@@H]([C@H]1C(=O)NC(CC1CC1)C(=O)C(N)=O)C2(C)C)C(C)(C)C)C(=O)OCc1ccoc1 (stereo partly shown) [compound 4421] | < 75

Row | Structure (SMILES) | Ki [nM]
24 | CC(C)(C)[C@H](NC(=O)N[C@H](C(=O)N1C[C@H]2[C@@H]([C@H]1C(=O)NC(CC1CCC1)C(=O)C(N)=O)C2(C)C)C(C)(C)C)C(=O)OC1CCCC1 (stereo partly shown) [compound 4422] | < 75
25 | CC(C)(C)[C@H](NC(=O)N[C@H](C(=O)N1C[C@H]2[C@@H]([C@H]1C(=O)NC(CC1CC1)C(=O)C(N)=O)C2(C)C)C(C)(C)C)C(=O)OC1CCC1 (stereo partly shown) [compound 4423] | < 75
26 | CC(C)[C@H](NC(=O)N[C@H](C(=O)N1C[C@H]2[C@@H]([C@H]1C(=O)NC(CC1CC1)C(=O)C(N)=O)C2(C)C)C(C)(C)C)C(=O)OC1CCCC1 (stereo partly shown) [compound 4424] | < 75
27 | C[C@@H](OC(=O)[C@@H](NC(=O)N[C@H](C(=O)N1C[C@H]2[C@@H]([C@H]1C(=O)NC(CC1CCC1)C(=O)C(N)=O)C2(C)C)C(C)(C)C)C(C)(C)C)c1ccccc1 (stereo partly shown) [compound 4425] | < 75
28 | CC(C)(C)[C@H](NC(=O)NC1(C(=O)OCc2ccsc2)CCCCC1)C(=O)N1C[C@H]2[C@@H]([C@H]1C(=O)NC(CC1CC1)C(=O)C(N)=O)C2(C)C (stereo partly shown) [compound 4426] | < 75
29 | C=CCNC(=O)C(=O)C(CCC)NC(=O)[C@@H]1[C@@H]2[C@H](CN1C(=O)[C@@H](NC(=O)N[C@H](C(=O)OCc1ccc(OC)cc1)C(C)(C)C)C(C)(C)C)C2(C)C (stereo partly shown) [compound 4427] | < 75
30 | CC(C)(C)OC(=O)[C@@H](NC(=O)N[C@H](C(=O)N1C[C@H]2[C@@H]([C@H]1C(=O)NC(CC1CCC1)C(=O)C(N)=O)C2(C)C)C1CCCC1)C(C)(C)C (stereo partly shown) [compound 4428] | < 75
31 | CC(C)OC(=O)[C@@H](NC(=O)N[C@H](C(=O)N1C[C@H]2[C@@H]([C@H]1C(=O)NC(CC1CC1)C(=O)C(N)=O)C2(Cl)Cl)C(C)(C)C)C(C)(C)C (stereo partly shown) [compound 4429] | < 75
32 | CC1(C)[C@@H]2[C@@H](C(=O)NC(CC3CC3)C(=O)C(N)=O)N(C(=O)[C@@H](NC(=O)NC3(C(=O)OCC4CC4)CCCCC3)C3CCCCC3)C[C@@H]21 (stereo partly shown) [compound 4430] | < 75
33 | C=CCNC(=O)C(=O)C(CCC(F)(F)F)NC(=O)[C@@H]1[C@@H]2[C@H](CN1C(=O)[C@@H](NC(=O)N[C@H](C(=O)OC(C)(C)C)C(C)(C)C)C(C)(C)C)C2(C)C (stereo partly shown) [compound 4431] | < 75
34 | C=CCNC(=O)C(=O)C(CCC(F)(F)F)NC(=O)[C@@H]1[C@@H]2[C@H](CN1C(=O)[C@@H](NC(=O)N[C@H](C(=O)OCc1ccccc1)C(C)(C)C)C(C)(C)C)C2(C)C (stereo partly shown) [compound 4432] | < 75
35 | CC(C)(C)OC(=O)[C@@H](NC(=O)N[C@H](C(=O)N1C[C@H]2[C@@H]([C@H]1C(=O)NC(CC1CC1(F)F)C(=O)C(N)=O)C2(C)C)C(C)(C)C)C(C)(C)C (stereo partly shown) [compound 4433] | < 75
36 | CC(C)[C@H](NC(=O)N[C@H](C(=O)N1C[C@H]2[C@@H]([C@H]1C(=O)NC(CC1CC1(F)F)C(=O)C(N)=O)C2(C)C)C(C)(C)C)C(=O)OCc1ccccc1 (stereo partly shown) [compound 4434] | < 75
37 | CC1(C)[C@@H]2[C@@H](C(=O)NC(CC3CC3)C(=O)C(N)=O)N(C(=O)[C@@H](NC(=O)NC3(C(=O)OCc4ccccc4)CC4CCC3C4)C3CCCCC3)C[C@@H]21 (stereo partly shown) [compound 4435] | < 75
38 | C[C@H](OC(=O)[C@@H](NC(=O)N[C@H](C(=O)N1C[C@H]2[C@@H]([C@H]1C(=O)NC(CC1CC1)C(=O)C(N)=O)C2(Cl)Cl)C(C)(C)C)C(C)(C)C)c1ccccc1 (stereo partly shown) [compound 4436] | < 75
39 | CC(C)(C)OC(=O)C(C)(C)NC(=O)N[C@H](C(=O)N1C[C@H]2[C@@H]([C@H]1C(=O)NC(CC1CC1)C(=O)C(N)=O)C2(Cl)Cl)C(C)(C)C (stereo partly shown) [compound 4437] | < 75
40 | C=CCNC(=O)C(=O)C(CCC)NC(=O)[C@@H]1[C@@H]2[C@H](CN1C(=O)[C@@H](NC(=O)N[C@H](C(=O)OC(C)(C)C)C(C)(C)C)C(C)(C)C)C2(C)C (stereo partly shown) [compound 4438] | < 75
41 | CC(C)(C)C[C@H](NC(=O)N[C@H](C(=O)N1C[C@H]2[C@@H]([C@H]1C(=O)NC(CC1CCC1)C(=O)C(N)=O)C2(C)C)C(C)(C)C)C(=O)OCc1ccccc1 (stereo partly shown) [compound 4439] | < 75
42 | CC(C)(C)[C@H](NC(=O)NC1(C(=O)OCc2ccsc2)CCCCC1)C(=O)N1C[C@H]2[C@@H]([C@H]1C(=O)NC(CC1CCC1)C(=O)C(N)=O)C2(C)C (stereo partly shown) [compound 4440] | < 75
43 | CC(C)(C)C[C@H](NC(=O)N[C@H](C(=O)N1C[C@H]2[C@@H]([C@H]1C(=O)NC(CC1CC1)C(=O)C(N)=O)C2(C)C)C(C)(C)C)C(=O)OCC1CC1 (stereo partly shown) [compound 4441] | < 75
44 | CC(OC(=O)[C@H](CC(C)(C)C)NC(=O)N[C@H](C(=O)N1C[C@H]2[C@@H]([C@H]1C(=O)NC(CC1CC1)C(=O)C(N)=O)C2(C)C)C(C)(C)C)C1CC1 (stereo partly shown) [compound 4442] | < 75
45 | C=CCNC(=O)C(=O)C(CCC)NC(=O)[C@@H]1[C@@H]2[C@H](CN1C(=O)[C@@H](NC(=O)N[C@H](C(=O)OCC1CC1)C1(C(F)(F)F)CC1)C(C)(C)C)C2(C)C (stereo partly shown) [compound 4443] | < 75
46 | C=CCNC(=O)C(=O)C(CCC)NC(=O)[C@@H]1[C@@H]2[C@H](CN1C(=O)[C@@H](NC(=O)N[C@H](C(=O)OCC1CC1)C1CCCCC1)C(C)(C)C)C2(C)C (stereo partly shown) [compound 4445] | < 75
